Experimental data as given in the RNAGym collection of RNA variant scans (doi:10.1101/gad.245936.114).
Variants at the floor of the assay are shown more often than the library holds them.

B1: tRNA (parent)
chain: CUCUCGGUAGCCAAGUUGGUUUAAGGCGCAAGACUUUAAUUUAUCACUACGAAAUCUUGAGAUCGGGCGUUCGACUCGCCCCCGGGAGAUUUUUUCCUCGAGCAA

Variants of: B1
Experiment: nonsense suppression (GFP-seq) (ratio to wild type); higher = more function; SUP4oc tRNA, yeast GFP reporter sort-seq
Outline: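 Yeast were grown in raffinose/galactose medium with 80 mg/L adenine, each strain bearing a genome-integrated ochre-suppressor tRNA variant from a ~3% random-mutation library, a galactose-driven GFP ochre reporter, and RFP. After sorting into GFP/RFP bins, every bin was sequenced on an Illumina platform at phred ≥30. The GFPSEQ value, a measure of nonsense suppression, is the weighted bin median GFP/RFP relative to the unmutated parent tRNA, using each variant's estimated cell share per bin as the weight. Only variants with ≥100 reads and ≥30 cells were included.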

Nonsense suppression, ≤ 0.026:
G18A G88A
G18A U20A A31U U57A A62U G67C
G18A U21A A30C
G18A U21A U22G
G18A U21G A23C A30G G86A
G18A U21G G32C U63C
G18A U21G G65C
G18A U22C U71C
G18A U35G
G18A U55A U58A
G18A U55G G78A G86A
G18A U57A U58C G69A
G18A U57G A60C G67A A74U
G18C
G18C A23G C56U G66C
G18C A23U A33G G78C
G18C A23U A89U
G18C A23U C27A G32C A54C G65C
G18C A23U G26U C34A U55C
G18C A24C
G18C A24C C72A A74C
G18C A24U U55C
G18C A30G
G18C A31C U57C
G18C A33C
G18C A33G C80G
G18C A33U
G18C A54G U63C C68U
G18C A60C G65C
G18C A60C U71A C72U
G18C A60G A87U
G18C A60U A89G
G18C A89G
G18C C29A C79A
G18C C29G
G18C C29U C82G
G18C C29U G86U
G18C C29U U70G C81A
G18C C34G G88A
G18C C56A G59A
G18C C56G U57G C72U
G18C C72G
G18C C72U G84U
G18C C80A
G18C G19A A24U
G18C G19A C29U
G18C G19A G28C
G18C G26U
G18C G26U C72U
G18C G26U G67U
G18C G26U U55G G69U
G18C G28A C75G
G18C G28C C29G
G18C G32C G59A U71A
G18C G61A
G18C G61A G84C
G18C G61A U63A
G18C G66A
G18C G67A G78A A87C
G18C G67C
G18C G67U
G18C G78A G88A
G18C U20A
G18C U21C C79U
G18C U57G A87C
G18C U63G
G18C U63G G66U
G18C U63G G86A
G18C U70G C80A G88A
G18C U71C
G18U
G18U A24G U63G G88C
G18U A24U A62G
G18U A24U G32C
G18U A24U G66U
G18U A30G A31U U57C
G18U A30G G69A
G18U A31G G67A C81A A87G
G18U A31G U63A
G18U A31U G32A G67A G86C G88A
G18U A33U G69C
G18U A60G
G18U A62G
G18U A62U
G18U A87C
G18U A89C
G18U C27A
G18U C27A G28U U57G U76A
G18U C29A A30C G86U
G18U C34A
G18U C34A C80A G84C
G18U C34U A62C G73U
G18U C56A
G18U C68U
G18U C72G
G18U C77U C81U
G18U C79A
G18U C83A
G18U G19A
G18U G19U G66C G78U C79G
G18U G25A A31U
G18U G25A U70A A87U
G18U G26A C27G U35G
G18U G26U G86A G88C
G18U G28A G85C
G18U G28C C80G A87G
G18U G28U U70C C81A
G18U G32C
G18U G32U A33G
G18U G32U G61C A74C
G18U G59A
G18U G61A G85A
G18U G65C G88A
G18U G66U C68U
G18U G67A
G18U G69C G85C
G18U G73A
G18U U20A A60C
G18U U20A U58A A60U C77G G84A
G18U U20C U35G C83A G85C
G18U U21A G25U
G18U U21G G25U G32U U63C G85A
G18U U55C G59A
G18U U57C G65U G85C
G18U U57G
G18U U58C G61U G65U G78A
G18U U58G C68A
G18U U63G C80U
G18U U63G G66U
G18U U70G A87C
G18U U76A
G19A
G19A A23G
G19A A23G U71A
G19A A30C
G19A A30G
G19A A30G A62G
G19A A30U C56A C80A G85A
G19A A31C U70C C81G
G19A A31G A54G G67A U76C C80A
G19A A31G G61U A89U
G19A A31G G85U
G19A A33U
G19A A33U C68G C79A G88U
G19A A54C C79G
G19A A54G G67A
G19A A60U
G19A A60U A89G
G19A C27A A62U C79G
G19A C27G
G19A C27U C29A A62U G84C
G19A C29G A62C
G19A C29U
G19A C34A G59A G73U C82U
G19A C34U U71A
G19A C56U G66A C68G
G19A C64G
G19A C64U A74U
G19A C68A
G19A C68G
G19A C82G
G19A C83U A89C
G19A G25C
G19A G26U
G19A G28U
G19A G28U G65C
G19A G32A
